Data reported in the RNAGym collection of RNA variant scans (doi:10.1093/nar/gkz1192).
The source gives no read counts; variants with many changes may rest on few reads.

B1: CPEB3 Ribozyme (parent)
chain: UAACAGGGGGCCACAGCAGAAGCGUUCACGUCGCAGCCCCUGUCAGAUUCUGGUGAAUCUGCGAAUUCUGCUGUAUAUCUC

Variants of: B1
Experiment: self-cleavage, relative activity (ratio to wild type); higher = more cleavage; in vitro, sequencing
Summary of the method: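 Barcoded CPEB3 ribozyme mutants, produced by rounds of error-prone PCR, self-cleaved while being transcribed with T7 RNA polymerase for 5 hours at 37°C and during a subsequent 15 min DNase I step before EDTA was added. Sequencing of template-switched cDNA on Illumina gave cleaved and total reads, and DNA sequencing assigned barcodes to variants. Each variant's relative activity is its cleaved/total read fraction divided by the unmutated ribozyme's fraction, averaged across three batches. A variant needed a minimum of 5 reads.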

Variant	self-cleavage
UAACAGGGGGCCACAGCAGAGGCGUACACGUCGCAGCCCCUGUCAGAUUCUGGUGAAUCUGCGAAUUCUGCGGUAUAUCUC [A21G U26A U72G]	0.37
UAACAGGGGGCCACAGCAGAGGCGUCCCCGUCGCAGCCCCUGUCAGAUUCUGGUGAAUCUGCGAAUUCUGCUGUAUAUCUC [A21G U26C A28C]	0.15
UAACAGGGGGCCACAGCAGAGGCGUCCACGUCGCUGCCCCUGUCGGAUUCUGGUGGAUCUGCGAAUUCUGCCGCAUAUCUC [A21G U26C A35U A45G A56G U72C U74C]	0.02
UAACAGGGGGCCACAGCAGAGGCGUCCACGUCGCUGCCCCUGUCAGGUUCUGGUGAAUCUGCGAAUUCUGCUAUAUAUCAC [A21G U26C A35U A47G G73A U80A]	0.08
UAACAGGGGGCCACAGCAGAGGCGUCCACGUCGCAGCCCCUGUCAGAUUCUGGUGGAUCUGCGAAUUCUGCCGUAUAUCUC [A21G U26C A56G U72C]	0.51
UAACAGGGGGCCACAGCAGAGGCGUCCACGUCGCAGCCCCUGUCAGAUUCUGGUGAGUCUGCGAAUUCUGCUGUACAUCUC [A21G U26C A57G U76C]	0.28
UAACAGGGGGCCACAGCAGAGGCGUCCACGUCGCAGCCCCUGUCAGAUUCUGGUGAAUCUGCGGAUUCUGCUGUAUAUCUC [A21G U26C A64G]	0.36
UAACAGGGGGCCACAGCAGAGGCGUCCACGUCGCAGCCCUUGACAGAUACUGGUGAAUCUGCGAAUCCUGCUGCAUAUCUC [A21G U26C C40U U43A U49A U67C U74C]	0.05
UAACAGGGGGCCACAGCAGAGGCGUCCACGUCGCAGCCCCUGUCAGAUUCUGGUGAAUCUGAGAAUUCUGCUGUAUAUCUC [A21G U26C C62A]	0.16
UAACAGGGGGCCACAGCAGAGGCGUCCACGUCGCAGCCCCUAUCAGAUUCUGGUGAAUCUGCGAAUUCCGCUGUAUAUCUC [A21G U26C G42A U69C]	0.15
UAACAGGGGGCCACAGCAGAGGCGUCCACGUCGCAGCCCCCGACAGAUUCUGGUGAAUCAGCGAAUUCUGCUGUAUGUCUC [A21G U26C U41C U43A U60A A77G]	0.1
UAACAGGGGGCCACAGCAGAGGCGUCCACGUCGCAGCCCCCGUCAGAUUCUGGCGACUCUGCGAAUUCUGCUGUAUAUCUC [A21G U26C U41C U54C A57C]	0.32
UAACAGGGGGCCACAGCAGAGGCGUCCACGUCGCAGCCCCUGCCAGAUUCUGGUGAAUCUGCGAAUUCUGCUGUAUAUCCC [A21G U26C U43C U80C]	0.15
UAACAGGGGGCCACAGCAGAGGCGUCCACGUCGCAGCCCCUGUCAGACUCUGGUGAAUCUGCUAAUUCUGCUGUAUAUCUC [A21G U26C U48C G63U]	0.12
UAACAGGGGGCCACAGCAGAGGCGUCCACGUCGCAGCCCCUGUCAGAUACUGGUGAGUCUGCGAACUCUGCUGUAUAUCUC [A21G U26C U49A A57G U66C]	0.26
UAACAGGGGGCCACAGCAGAGGCGUCCACGUCGCAGCCCCUGUCAGAUUCUGGAGAAUCUGCGAAUUCUGCUGUAUAUCUC [A21G U26C U54A]	0.29
UAACAGGGGGCCACAGCAGAGGCGUCCACGUCGCAGCCCCUGUCAGAUUCUGGCGAGUCUGCGAAUUCCGCUGUAUAUCUC [A21G U26C U54C A57G U69C]	0.04

Variant	self-cleavage
UAACAGGGGGCCACAGCAGAGGCGUCCACGUCGCAGCCCCUGUCAGAUUCUGGUGAAUCUGCGAAUCCUGCUGUAUGUCUC [A21G U26C U67C A77G]	0.07
UAACAGGGGGCCACAGCAGAGGCGUCCACGUCGCAGCCCCUGUCAGAUUCUGGUGAAUCUGCGAAUUCCGCUGUAUAUCUC [A21G U26C U69C]	0.25
UAACAGGGGGCCACAGCAGAGGCGUGCGCGGCGCAGCCCCUGUCAGAUUCUGGUGAAUCUGCGAAUUCUGCUGUAUAUCUC [A21G U26G A28G U31G]	0.34
UAACAGGGGGCCACAGCAGAGGCGUUCACGACGCAGCCCCUGUCGGAUUCUGGUGAAUCCGCGAAUUCUGCUGUAUAUCUC [A21G U31A A45G U60C]	0.16
UAACAGGGGGCCACAGCAGAGGCGUUCACGACGCAGCCCCUGUCAGAUUCUGGUGUAUCUGCGAAUUCUGAUGUAUAUCUC [A21G U31A A56U C71A]	0.09
UAACAGGGGGCCACAGCAGAGGCGUUCACGACGCAACCCCUGUCAGACUCUGGUGAAUCGGCGAAUUCUGCUGUAUAUCUC [A21G U31A G36A U48C U60G]	0.05
UAACAGGGGGCCACAGCAGAGGCGUUCACGACGCAGCCCCAGUCAGAUUCUGGUAAAUCUGCGAAUUCUGCUGUAUAUCUC [A21G U31A U41A G55A]	0.05
UAACAGGGGGCCACAGCAGAGGCGUUCACGACGCAGCCCCGGUCAGAUUCUGGUGAAUCUGCGAAUUCUGCUGUAUAUCUC [A21G U31A U41G]	0.1
UAACAGGGGGCCACAGCAGAGGCGUUCACGACGCAGCCCCUGUCAGACUCUGGUGAAUCUGCGAAUUCUGCUGUAUAUCUC [A21G U31A U48C]	0.36
UAACAGGGGGCCACAGCAGAGGCGUUCACGACGCAGCCCCUGUCAGAUACUGGUGAAUCUGCGAAUUCUGCUGUAUAUCUC [A21G U31A U49A]	0.13
UAACAGGGGGCCACAGCAGAGGCGUUCACGACGCAGCCCCUGUCAGAUUCUGGUGAAUCAGCGAAAUCUGCUGUAUAUCUC [A21G U31A U60A U66A]	0.14
UAACAGGGGGCCACAGCAGAGGCGUUCACGACGCAGCCCCUGUCAGAUUCUGGUGAAUCUGCGAAUUCAGCUGUAUAUCUC [A21G U31A U69A]	0.24
UAACAGGGGGCCACAGCAGAGGCGUUCACGCCGCAGCCCCUGUCGGGUUCUGGUGAAUCUGCGAAUUCUGCUGUAUAUCUC [A21G U31C A45G A47G]	0.05
UAACAGGGGGCCACAGCAGAGGCGUUCACGCCGCAGCCCCUGUCAGGUUCUGGUGGAUCUGCGAAUUCUGCUGUAUAUCUC [A21G U31C A47G A56G]	0.18
UAACAGGGGGCCACAGCAGAGGCGUUCACGCCGCAGCCCCUGUCAGAUUCUGGUGGAUCUGCGAAUUCUGCUGUAUAUCUC [A21G U31C A56G]	0.21
UAACAGGGGGCCACAGCAGAGGCGUUCACGCCGCAGCCCCUGUCAGAUUCUGGUGGGUCUGCGAAUUCUGGUGUAUAUCAC [A21G U31C A56G A57G C71G U80A]	0.05
UAACAGGGGGCCACAGCAGAGGCGUUCACGCCGCAGCCCCUGUCAGAUUCUGGUGUAUCCUCGAAUUCUGCCGUAUAUCUC [A21G U31C A56U U60C G61U U72C]	0.06
